# Laboratory results taken from the supplement of paper PMC8728848.
# Some of the results follow.
# B1: CML1 (Coprinopsis cinerea) (protein)
# chain: MAIFHTGSELFIITRGPGKLTLLTWGGLNNLRSVIGAIPTENTGVTKWAVSFSHNYTRFSFIWEGQGEACYQIGNGLTRSPVGRSWSSSSTIHWGSSTVITEDVTSVVPGAVNRDKVTTAYALPDNL
# Assays:
# Assay in all cases: glycan array binding signal (z-score within array); higher = stronger binding
# Details in all cases: glycan notation: IUPAC condensed, linker removed
# [1] = molecular target: Gal(b1-4)GlcNAc(b1-2)[Gal(b1-4)GlcNAc(b1-6)]Man(a1-6)[Gal(b1-4)GlcNAc(b1-2)Man(a1-3)]Man(b1-4)GlcNAc(b1-4)[Fuc(a1-6)]GlcNAc
# Summary of the method: (§1)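 Glycan array data were curated from 3228 arrays in the Consortium for Functional Glycomics database and kept only where the protein sequence was available. Glycan names were converted to IUPAC-condensed notation, and columns mapping to the same glycan were averaged. The binding signal is a within-array Z-score, averaged across arrays of the same protein sequence at different concentrations or buffers and across linkers. Negative Z-scores can be read as non-binding.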
# [2] = molecular target: Gal(b1-4)GlcNAc(b1-2)[Gal(b1-4)GlcNAc(b1-6)]Man(a1-6)[GlcNAc(b1-4)][Gal(b1-4)GlcNAc(b1-2)Man(a1-3)]Man(b1-4)GlcNAc(b1-4)GlcNAc
# Summary of the method: as §1
# [3] = molecular target: Gal(b1-4)GlcNAc(b1-2)[Gal(b1-4)GlcNAc(b1-6)]Man(a1-6)[GlcNAc(b1-4)][Gal(b1-4)GlcNAc(b1-2)[Gal(b1-4)GlcNAc(b1-4)]Man(a1-3)]Man(b1-4)GlcNAc(b1-4)[Fuc(a1-6)]GlcNAc
# Summary of the method: as §1
# [4] = molecular target: Gal(b1-4)GlcNAc(b1-3)Gal(b1-3)GalNAc
# Summary of the method: as §1
# [5] = molecular target: Gal(b1-4)GlcNAc(b1-3)Gal(b1-3)GlcNAc
# Summary of the method: as §1
# [6] = molecular target: Gal(b1-4)GlcNAc(b1-3)Gal(b1-4)Glc
# Summary of the method: as §1
# [7] = molecular target: Gal(b1-4)GlcNAc(b1-3)Gal(b1-4)GlcNAc
# Summary of the method: as §1
# [8] = molecular target: Gal(b1-4)GlcNAc(b1-3)Gal(b1-4)GlcNAc(b1-2)Man(a1-3)[Gal(b1-4)GlcNAc(b1-3)Gal(b1-4)GlcNAc(b1-2)Man(a1-6)]Man(b1-4)GlcNAc(b1-4)GlcNAc
# Summary of the method: as §1
# [9] = molecular target: Gal(b1-4)GlcNAc(b1-3)Gal(b1-4)GlcNAc(b1-2)Man(a1-3)[Gal(b1-4)GlcNAc(b1-3)Gal(b1-4)GlcNAc(b1-2)Man(a1-6)]Man(b1-4)GlcNAc(b1-4)[Fuc(a1-6)]GlcNAc
# Summary of the method: as §1
# [10] = molecular target: Gal(b1-4)GlcNAc(b1-3)Gal(b1-4)GlcNAc(b1-2)[Gal(b1-4)GlcNAc(b1-3)Gal(b1-4)GlcNAc(b1-6)]Man(a1-6)[Gal(b1-4)GlcNAc(b1-3)Gal(b1-4)GlcNAc(b1-2)Man(a1-3)]Man(b1-4)GlcNAc(b1-4)GlcNAc
# Summary of the method: as §1
# [11] = molecular target: Gal(b1-4)GlcNAc(b1-3)Gal(b1-4)GlcNAc(b1-2)[Gal(b1-4)GlcNAc(b1-3)Gal(b1-4)GlcNAc(b1-6)]Man(a1-6)[Gal(b1-4)GlcNAc(b1-3)Gal(b1-4)GlcNAc(b1-2)Man(a1-3)]Man(b1-4)GlcNAc(b1-4)[Fuc(a1-6)]GlcNAc
# Summary of the method: as §1
# [12] = molecular target: Gal(b1-4)GlcNAc(b1-3)Gal(b1-4)GlcNAc(b1-3)Gal(b1-4)GlcNAc
# Summary of the method: as §1
# [13] = molecular target: Gal(b1-4)GlcNAc(b1-3)Gal(b1-4)GlcNAc(b1-3)Gal(b1-4)GlcNAc(b1-2)Man(a1-3)[Gal(b1-4)GlcNAc(b1-3)Gal(b1-4)GlcNAc(b1-3)Gal(b1-4)GlcNAc(b1-2)Man(a1-6)]Man(b1-4)GlcNAc(b1-4)GlcNAc
# Summary of the method: as §1
# [14] = molecular target: Gal(b1-4)GlcNAc(b1-3)Gal(b1-4)GlcNAc(b1-3)Gal(b1-4)GlcNAc(b1-2)Man(a1-3)[Gal(b1-4)GlcNAc(b1-3)Gal(b1-4)GlcNAc(b1-3)Gal(b1-4)GlcNAc(b1-2)Man(a1-6)]Man(b1-4)GlcNAc(b1-4)[Fuc(a1-6)]GlcNAc
# Summary of the method: as §1
# [15] = molecular target: Gal(b1-4)GlcNAc(b1-3)Gal(b1-4)GlcNAc(b1-3)Gal(b1-4)GlcNAc(b1-2)[Gal(b1-4)GlcNAc(b1-3)Gal(b1-4)GlcNAc(b1-3)Gal(b1-4)GlcNAc(b1-6)]Man(a1-6)[Gal(b1-4)GlcNAc(b1-3)Gal(b1-4)GlcNAc(b1-3)Gal(b1-4)GlcNAc(b1-2)Man(a1-3)]Man(b1-4)GlcNAc(b1-4)[Fuc(a1-6)]GlcNAc
# Summary of the method: as §1
# [16] = molecular target: Gal(b1-4)GlcNAc(b1-3)Gal(b1-4)GlcNAc(b1-3)Gal(b1-4)GlcNAc(b1-3)Gal(b1-4)GlcNAc(b1-2)Man(a1-3)[Gal(b1-4)GlcNAc(b1-3)Gal(b1-4)GlcNAc(b1-3)Gal(b1-4)GlcNAc(b1-3)Gal(b1-4)GlcNAc(b1-2)Man(a1-6)]Man(b1-4)GlcNAc(b1-4)GlcNAc
# Summary of the method: as §1
# [17] = molecular target: Gal(b1-4)GlcNAc(b1-3)Gal(b1-4)GlcNAc(b1-3)Gal(b1-4)GlcNAc(b1-3)Gal(b1-4)GlcNAc(b1-2)Man(a1-3)[Gal(b1-4)GlcNAc(b1-3)Gal(b1-4)GlcNAc(b1-3)Gal(b1-4)GlcNAc(b1-3)Gal(b1-4)GlcNAc(b1-2)Man(a1-6)]Man(b1-4)GlcNAc(b1-4)[Fuc(a1-6)]GlcNAc
# Summary of the method: as §1
# [18] = molecular target: Gal(b1-4)GlcNAc(b1-3)Gal(b1-4)GlcNAc(b1-3)Gal(b1-4)GlcNAc(b1-3)Gal(b1-4)GlcNAc(b1-2)[Gal(b1-4)GlcNAc(b1-3)Gal(b1-4)GlcNAc(b1-3)Gal(b1-4)GlcNAc(b1-3)Gal(b1-4)GlcNAc(b1-6)]Man(a1-6)[Gal(b1-4)GlcNAc(b1-3)Gal(b1-4)GlcNAc(b1-3)Gal(b1-4)GlcNAc(b1-3)Gal(b1-4)GlcNAc(b1-2)Man(a1-3)]Man(b1-4)GlcNAc(b1-4)[Fuc(a1-6)]GlcNAc
# Summary of the method: as §1
# [19] = molecular target: Gal(b1-4)GlcNAc(b1-3)Gal(b1-4)GlcNAc(b1-3)Gal(b1-4)GlcNAc(b1-3)Gal(b1-4)GlcNAc(b1-3)Gal(b1-4)GlcNAc(b1-2)Man(a1-3)[Gal(b1-4)GlcNAc(b1-3)Gal(b1-4)GlcNAc(b1-3)Gal(b1-4)GlcNAc(b1-3)Gal(b1-4)GlcNAc(b1-3)Gal(b1-4)GlcNAc(b1-2)Man(a1-6)]Man(b1-4)GlcNAc(b1-4)GlcNAc
# Summary of the method: as §1
# [20] = molecular target: Gal(b1-4)GlcNAc(b1-3)Gal(b1-4)GlcNAc(b1-3)Gal(b1-4)GlcNAc(b1-3)Gal(b1-4)GlcNAc(b1-3)Gal(b1-4)GlcNAc(b1-2)Man(a1-3)[Gal(b1-4)GlcNAc(b1-3)Gal(b1-4)GlcNAc(b1-3)Gal(b1-4)GlcNAc(b1-3)Gal(b1-4)GlcNAc(b1-3)Gal(b1-4)GlcNAc(b1-2)Man(a1-6)]Man(b1-4)GlcNAc(b1-4)[Fuc(a1-6)]GlcNAc
# Summary of the method: as §1
# [21] = molecular target: Gal(b1-4)GlcNAc(b1-3)Gal(b1-4)GlcNAc(b1-3)Gal(b1-4)GlcNAc(b1-3)Gal(b1-4)GlcNAc(b1-3)Gal(b1-4)GlcNAc(b1-2)[Gal(b1-4)GlcNAc(b1-3)Gal(b1-4)GlcNAc(b1-3)Gal(b1-4)GlcNAc(b1-3)Gal(b1-4)GlcNAc(b1-3)Gal(b1-4)GlcNAc(b1-6)]Man(a1-6)[Gal(b1-4)GlcNAc(b1-3)Gal(b1-4)GlcNAc(b1-3)Gal(b1-4)GlcNAc(b1-3)Gal(b1-4)GlcNAc(b1-3)Gal(b1-4)GlcNAc(b1-2)Man(a1-3)]Man(b1-4)GlcNAc(b1-4)[Fuc(a1-6)]GlcNAc
# Summary of the method: as §1
# [22] = molecular target: Gal(b1-4)GlcNAc(b1-3)Gal(b1-4)GlcNAc(b1-3)Gal(b1-4)GlcNAc(b1-3)Gal(b1-4)GlcNAc(b1-3)Gal(b1-4)GlcNAc(b1-3)Gal(b1-4)GlcNAc(b1-2)Man(a1-3)[Gal(b1-4)GlcNAc(b1-3)Gal(b1-4)GlcNAc(b1-3)Gal(b1-4)GlcNAc(b1-3)Gal(b1-4)GlcNAc(b1-3)Gal(b1-4)GlcNAc(b1-3)Gal(b1-4)GlcNAc(b1-2)Man(a1-6)]Man(b1-4)GlcNAc(b1-4)GlcNAc
# Summary of the method: as §1
# [23] = molecular target: Gal(b1-4)GlcNAc(b1-3)Gal(b1-4)GlcNAc(b1-3)GalNAc
# Summary of the method: as §1
binder,measurement,setting,value
B1,glycan array binding signal (z-score),[1],-0.319
same,glycan array binding signal (z-score),[2],-0.329
same,glycan array binding signal (z-score),[3],-0.355
same,glycan array binding signal (z-score),[4],-0.345
same,glycan array binding signal (z-score),[5],-0.326
same,glycan array binding signal (z-score),[6],-0.333
same,glycan array binding signal (z-score),[7],-0.341
same,glycan array binding signal (z-score),[8],-0.317
same,glycan array binding signal (z-score),[9],-0.313
same,glycan array binding signal (z-score),[10],-0.351
same,glycan array binding signal (z-score),[11],-0.313
same,glycan array binding signal (z-score),[12],-0.297
same,glycan array binding signal (z-score),[13],-0.318
same,glycan array binding signal (z-score),[14],-0.285
same,glycan array binding signal (z-score),[15],-0.29
same,glycan array binding signal (z-score),[16],-0.304
same,glycan array binding signal (z-score),[17],-0.28
same,glycan array binding signal (z-score),[18],-0.289
same,glycan array binding signal (z-score),[19],-0.297
same,glycan array binding signal (z-score),[20],-0.302
same,glycan array binding signal (z-score),[21],-0.257
same,glycan array binding signal (z-score),[22],-0.303
same,glycan array binding signal (z-score),[23],-0.32
